Data as given in PubChem BioAssay AID624202 (National Center for Advancing Translational Sciences (NCATS), 2012).
Hit rate of the full screen: of about 380,000 compounds, about 4,000 (1.1%) were called active. The inconclusive results got no clear call from the source; some entries with a clear call stand among them for comparison. Calls come from the whole dose curve; as a rule, active = well fitted activation curve with a large enough effect; inconclusive = small, poorly fitted or top-dose-only effect; inactive = no such curve, though single readings can be large or run the other way. Potencies of inconclusive entries are doubtful fits and often do not repeat.

test: qHTS Assay to Identify Small Molecule Activators of BRCA1 Expression; conditions: MCF7-BRCA1-FFLuc reporter, luminescence, 48 h; activation: at 46.1 µM (top of the series), scaled: vehicle 0%, 10 µM genistein 100% unless noted; note: nearly all actives have a fitted effect of over 80% in size
Outline: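 Activators of BRCA1 expression were detected as increased firefly luciferase luminescence in engineered MCF7 cells after 48 h compound incubation. Signals were scaled to genistein 10 microM as full activation.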
Potency is the fitted concentration of half-maximal effect; tags give direction and shape of the fitted curve.

Question: For `COC(=O)c1c(NC(C)=O)sc(C(=O)Nc2ccccc2)c1C`, which Potency is on record?
Answer: inconclusive: 2.51 µM [activator, full curve, poor fit]

Question: For `Cc1ccn2cc(-c3cnoc3C)nc2c1`, which Potency is on record?
Answer: active: 10 µM

Question: With `O=C(Cn1c(=O)sc2ccccc21)NCc1ccccn1` as the compound, how does the Potency read?
Answer: inconclusive: 10 µM [activator, partial curve, poor fit]

Question: For `O=C1CCN(CCc2ccccc2)CCN1CCSc1ccccc1`, which Potency is on record?
Answer: inconclusive: 10 µM [activator, partial curve, poor fit]

Question: Which Potency does the source give for `Cc1ccc(NC(=O)C(=O)NC2CCCCC2)cc1` here?
Answer: active: 1.26 µM

Question: With `O=C(NCc1ccco1)c1sc2cc(F)ccc2c1Cl` as the compound, how does the Potency read?
Answer: active: 12.6 µM

Question: With `COc1ccccc1CCNC(=O)C(=O)NCC1OCCN1S(=O)(=O)c1cc(F)ccc1F` (stereo not drawn) as the compound, how does the Potency read?
Answer: inactive

Question: For `Cc1cc(F)ccc1-c1cc(C(=O)Nc2ccc(F)cc2)[nH]n1`, which Potency is on record?
Answer: inconclusive: 12.6 µM [activator, partial curve, poor fit]

Question: With `COc1ccc(OC)c(NC(=O)C2CCCN(S(=O)(=O)c3ccc(-n4cnnn4)cc3)C2)c1` (stereo not drawn) as the compound, how does the Potency read?
Answer: inconclusive: 31.6 µM [activator, single point]

Question: With `Cn1c2ccccc2c(=O)c2ccc(NCCc3cccs3)cc21` as the compound, how does the Potency read?
Answer: inconclusive: 2.51 µM [activator, partial curve, poor fit]

Question: For `O=C(Cn1nnc(-c2ccc3c(c2)OCO3)n1)Nc1ccccc1C(=O)O`, which Potency is on record?
Answer: active: 11.2 µM

Question: With `COc1ccc(OS(=O)(=O)Cc2ccccc2)cc1` as the compound, how does the Potency read?
Answer: inconclusive: 25.1 µM [activator, single point]

Question: With `O=C(NCC(=O)N1CCN(c2ccccc2)CC1)c1ccc(Cl)cc1` as the compound, how does the Potency read?
Answer: inactive

Question: For `CCCCCc1nc2c(=O)[nH]c3ccccc3c2o1`, which Potency is on record?
Answer: inconclusive: 11.2 µM [activator, single point]

Question: For `Cc1ccc(OCc2ccc(C(=O)NN)o2)cc1C`, which Potency is on record?
Answer: inconclusive: 1.78 µM [activator, full curve, poor fit]

Question: Which Potency does the source give for `COc1ccc2cc3cc(C(=O)NC(C)C)oc3nc2c1` here?
Answer: inconclusive: 12.6 µM [activator, partial curve, poor fit]

Question: With `COc1cccc(NC(=O)C(=O)NCc2ccncc2)c1` as the compound, how does the Potency read?
Answer: inconclusive: 15.8 µM [activator, single point]

Question: For `COC(=O)Nc1nnc(/C=C/c2ccc(OC)cc2)s1`, which Potency is on record?
Answer: active: 11.2 µM

Question: For `COc1ccc(-c2cn3ccsc3n2)cc1`, which Potency is on record?
Answer: inconclusive: 1.78 µM [activator, full curve, poor fit]

Question: Which Potency does the source give for `Cc1ccc(C)c(NC(=O)c2ccccc2NS(=O)(=O)c2cc([N+](=O)[O-])ccc2C)c1` here?
Answer: inactive

Question: With `CC(=O)Nc1ccc(Nc2ncnc3c2cnn3-c2cccc(C)c2)cc1` as the compound, how does the Potency read?
Answer: inconclusive: 2.51 µM [activator, partial curve, poor fit]

Question: With `CSc1ccc(OC2(C)CCN(Cc3ccc(C(C)C)cc3)C2)cc1` (stereo not drawn) as the compound, how does the Potency read?
Answer: inactive

Question: With `Cc1ccccc1-c1nnc(SCc2ccc(F)cc2)o1` as the compound, how does the Potency read?
Answer: inconclusive: 12.6 µM [activator, partial curve, poor fit]

Question: For `O=C(NN=Cc1ccccc1)c1ccccc1`, which Potency is on record?
Answer: inconclusive: 2.51 µM [activator, full curve, poor fit]

Question: With `COc1nc(-c2ccccc2)ccc1-c1noc(-c2ccco2)n1` as the compound, how does the Potency read?
Answer: inconclusive: 2.51 µM [activator, partial curve, poor fit]

Question: Which Potency does the source give for `CN(C)/C=C/C(=O)c1ccc(-c2ccc(Cl)cc2Cl)o1` here?
Answer: active: 11.2 µM

Question: With `O=C(c1ccco1)n1nc(-c2ccccc2)nc1SCc1ccccc1` as the compound, how does the Potency read?
Answer: active: 2.82 µM

Question: For `COc1ccc(-c2noc(Cc3cccs3)n2)cc1`, which Potency is on record?
Answer: active: 12.6 µM

Question: With `CCN1C(=O)/C(=C/C=C2\C=CN(CC)c3ccccc32)SC1=S` as the compound, how does the Potency read?
Answer: active: 6.31 µM

Question: For `COc1ccc(/C(N)=N/OC(=O)c2cccs2)cc1OC`, which Potency is on record?
Answer: active: 8.91 µM

Question: Which Potency does the source give for `Cc1cc(NC(=O)c2ccoc2C)ccc1Br` here?
Answer: inactive

Question: For `O=C(NCCC1=CCCCC1)C1COc2ccccc2O1` (stereo not drawn), which Potency is on record?
Answer: inconclusive: 14.1 µM [activator, partial curve, poor fit]

Question: Which Potency does the source give for `Oc1ccc(N=Nc2ccc3ccccc3c2)cc1` here?
Answer: inconclusive: 2 µM [activator, partial curve, poor fit]

Question: With `NC(=O)Nc1ccc2c(c1)OCCO2` as the compound, how does the Potency read?
Answer: inconclusive: 11.2 µM [activator, partial curve, poor fit]

Question: For `CCCCC(Sc1ccc2nnc(-c3ccccn3)n2n1)C(=O)O` (stereo not drawn), which Potency is on record?
Answer: inactive

Question: For `CC1(c2ccccc2)CC(C)(C)N2C(=O)/C(=C3\SC(=S)NC3=O)c3cccc1c32` (stereo not drawn), which Potency is on record?
Answer: inactive

Question: With `OC[C@H]1O[C@@H](c2nc(-c3nc(-c4ccc(F)cc4)no3)cs2)[C@H](O)[C@@H](O)[C@H]1O` as the compound, how does the Potency read?
Answer: inconclusive: 8.91 µM [activator, single point]

Question: Which Potency does the source give for `Cc1cc(NC(=O)c2ccc(C)c(C)c2)no1` here?
Answer: inconclusive: 7.08 µM [activator, partial curve, poor fit]

Question: Which Potency does the source give for `COc1ccc2c(c1)c1nc3ccccc3nc1n2CCCN1C(=O)c2ccccc2C1=O` here?
Answer: inconclusive: 31.6 µM [activator, single point]

Question: Which Potency does the source give for `CCOc1ccc(C(=O)N(CC)CC(=O)Nc2ccc3c(c2)OCCO3)cc1` here?
Answer: inconclusive: 22.4 µM [activator, single point]

Question: Which Potency does the source give for `COc1cc(OC)c(/C=C2\SC(=O)N(CC(=O)Nc3ccccc3F)C2=O)c(OC)c1` here?
Answer: inactive

Question: For `CC(C)(C)NC(=O)Cn1nnc(-c2ccccc2Cl)n1`, which Potency is on record?
Answer: active: 12.6 µM

Question: With `CC(=O)N1N=C(c2ccc(C)o2)CC1c1ccc(Br)cc1` (stereo not drawn) as the compound, how does the Potency read?
Answer: active: 10 µM

Question: For `CCC(=O)Nc1ccc2c(c1)C(=O)N(C1CCCCC1)C2=O`, which Potency is on record?
Answer: inactive

Question: Which Potency does the source give for `CC(C)Cc1cc(C(=O)NCc2ccco2)no1` here?
Answer: inconclusive: 10 µM [activator, partial curve, poor fit]

Question: For `Cc1cc2c(C)nc(-c3ccccc3)nc2o1`, which Potency is on record?
Answer: inconclusive: 6.31 µM [activator, partial curve, poor fit]

Question: For `COC(=O)C(Cc1ccc(O)cc1)N1Cc2ccccc2C1=O` (stereo not drawn), which Potency is on record?
Answer: active: 10 µM

Question: With `COC(=O)c1ccc2nc(-c3ccco3)c(Cc3ccccc3)n2c1` as the compound, how does the Potency read?
Answer: inactive

Question: For `COC(=O)C/C(C)=N/Nc1ccc(S(=O)(=O)N2CCCC2)cc1[N+](=O)[O-]`, which Potency is on record?
Answer: inactive

Question: With `CN(C)Cc1cc(C(C)(C)C)c(O)c(C(C)(C)C)c1` as the compound, how does the Potency read?
Answer: inactive

Question: Which Potency does the source give for `CCOC(=O)c1nn(-c2ccc(C)c(C)c2)cc1O` here?
Answer: inconclusive: 15.8 µM [activator, partial curve, poor fit]

Question: For `Cc1cc(C(=O)COC(=O)c2ccc(F)cc2)c(C)n1C`, which Potency is on record?
Answer: inconclusive: 11.2 µM [activator, partial curve, poor fit]

Question: With `COc1ccc2nc3cccc(OC)c3nc2c1` as the compound, how does the Potency read?
Answer: inconclusive: 17.8 µM [activator, partial curve, poor fit]

Question: With `COc1cccc(/C(C)=N/Nc2ncc(Cl)cc2Cl)c1` as the compound, how does the Potency read?
Answer: active: 10 µM

Question: With `O=C(NCCOc1ccc(Cl)cc1)c1ccc2c(c1)OCCO2` as the compound, how does the Potency read?
Answer: inconclusive: 2.82 µM [activator, full curve, poor fit]

Question: For `CC1CCN(C(=O)c2ccc(-c3ccccc3Cl)o2)CC1`, which Potency is on record?
Answer: inconclusive: 1.58 µM [activator, partial curve, poor fit]

Question: For `c1ccc(NCCc2ccccn2)cc1`, which Potency is on record?
Answer: inconclusive: 17.8 µM [activator, single point]

Question: Which Potency does the source give for `CCC[N+]1(CC#CCC(c2ccccc2)c2ccccc2)CCCCC1` here?
Answer: inactive

Question: With `Fc1cccc(CSc2nc3ccncc3[nH]2)c1` as the compound, how does the Potency read?
Answer: inconclusive: 8.91 µM [activator, partial curve, poor fit]

Question: For `CCOc1ccccc1OCCCOc1ccc(C)cc1Br`, which Potency is on record?
Answer: inconclusive: 35.5 µM [activator, single point]

Question: Which Potency does the source give for `Cc1ccc(NC(=O)Cn2c(=O)oc3cc(S(=O)(=O)NCc4ccccc4)ccc32)cc1` here?
Answer: inactive

Question: For `CN(C)c1ccc(/C=C2\C=Cc3ccccc32)cc1Cl`, which Potency is on record?
Answer: inconclusive: 7.08 µM [activator, partial curve, poor fit]

Question: Which Potency does the source give for `COc1ccc(NC2=Nc3ccccc3N3C2=Nc2c(c(C)nn2-c2ccc(C)cc2)C3c2cccnc2)cc1` (stereo not drawn) here?
Answer: inactive

Question: Which Potency does the source give for `Nc1nonc1-n1nnc(C(=O)N/N=C/c2ccc(OCc3ccc(F)cc3)cc2)c1COc1ccccc1` here?
Answer: inconclusive: 1.58 µM [activator, partial curve, poor fit]

Question: Which Potency does the source give for `Cc1ccc2nc(-c3ccccc3)c(Cc3ccccc3C(F)(F)F)n2c1` here?
Answer: active: 2.51 µM

Question: Which Potency does the source give for `Cc1cc2nc(-c3ccc(NC(=O)C(C)C)cc3)oc2cc1C` here?
Answer: inconclusive: 0.631 µM [activator, full curve, poor fit]

Question: Which Potency does the source give for `c1ccc2cc3[nH]c(CN4CCCCC4)nc3cc2c1` here?
Answer: inconclusive: 35.5 µM [activator, single point]

Question: For `O=[N+]([O-])c1ccc2c(c1)nc1n2CCN(C2CCCCC2)C1`, which Potency is on record?
Answer: inconclusive: 10 µM [activator, partial curve, poor fit]

Question: Which Potency does the source give for `O=[N+]([O-])c1ccc(Cc2nnc(-c3ccccc3Cl)o2)cc1` here?
Answer: inconclusive: 15.8 µM [activator, partial curve, poor fit]

Question: For `COc1cccc(/C=C/c2cnc3ccccc3n2)c1OC`, which Potency is on record?
Answer: inconclusive: 0.501 µM [activator, full curve, poor fit]

Question: For `Cc1c(C(=N)C(C#N)C#N)c(=N)oc2c1ccc1ccccc12`, which Potency is on record?
Answer: inactive

Question: With `CC(C)C(O)C1CCN(Cc2nc(-c3cccs3)no2)CC1` (stereo not drawn) as the compound, how does the Potency read?
Answer: inconclusive: 17.8 µM [activator, partial curve, poor fit]

Question: With `Cc1ccc(N(O)C(=O)NCCCCNC(=O)N(O)c2ccc(C)cc2)cc1` as the compound, how does the Potency read?
Answer: inconclusive: 35.5 µM [activator, single point]
